Source: the supplement of paper PMC4604168 (melanoma cell lines)
The other results are listed elsewhere or left out. Repeats are few or missing, and single values can be far off.

Columns and labels:
Test in all cases: cell count relative to DMSO control; melanoma cells; higher = more viable cells
Conditions in all cases: library dose: standard library concentration; 72 h
SkMel28 = system: SkMel28
SkMel2 = system: SkMel2
SkMel30 = system: SkMel30
SkMel5 = system: SkMel5
UACC257 = system: UACC257
UACC62 = system: UACC62
WM115 = system: WM115
WM1716 = system: WM1716
WM1745 = system: WM1745
WM3526 = system: WM3526
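Further: cells treated in 1,536-well plates, then fixed and DAPI-stained, with nuclei counted from automated high-throughput microscope images.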

| Compound | cell count (SkMel28) [%] | cell count (SkMel2) [%] | cell count (SkMel30) [%] | cell count (SkMel5) [%] | cell count (UACC257) [%] | cell count (UACC62) [%] | cell count (WM115) [%] | cell count (WM1716) [%] | cell count (WM1745) [%] | cell count (WM3526) [%] |
| --- | --- | --- | --- | --- | --- | --- | --- | --- | --- | --- |
| CC(C)C[C@H](NC(=O)[C@H](Cc1ccccc1)NC(=O)c1cnccn1)B(O)O [Bortezomib] + OCCn1cc(-c2cnc3nnn(Cc4ccc5ncccc5c4)c3n2)cn1 [PF04217903] (first compound 0.005 µM, partner dose 5 µM) | 22.3 | 27 | 30.4 | 23 | 69.4 | 58.9 | 24 | 13.9 | 11.7 | 23.3 |
| CC(C)C[C@H](NC(=O)[C@H](Cc1ccccc1)NC(=O)c1cnccn1)B(O)O [Bortezomib] + COc1ccc(Cl)c(Nc2nc3ccccc3nc2NS(=O)(=O)c2cccc(NC(=O)C(C)(C)N)c2)c1 [XL147] (first compound 0.005 µM, partner dose 4 µM) | 36.9 | 69.5 | 40.9 | 20.6 | 76.5 | 64.8 | 30 | 15.9 | 17.7 | 35 |
| Cn1c(=O)n(-c2ccc(C(C)(C)C#N)cc2)c2c3cc(-c4cnc5ccccc5c4)ccc3ncc21 + CC(C)C[C@H](NC(=O)[C@H](Cc1ccccc1)NC(=O)c1cnccn1)B(O)O [Bortezomib] (first compound 0.02 µM, partner dose 0.005 µM) | 31.3 | 39.4 | 46.9 | 37.8 | 73 | 51.2 | 33.8 | 32.1 | 37.9 | 31.9 |
| Cn1c(=O)n(-c2ccc(C(C)(C)C#N)cc2)c2c3cc(-c4cnc5ccccc5c4)ccc3ncc21 + O=C(O)c1ccc2c(c1)nc(Nc1cccc(Cl)c1)c1ccncc12 [CX4945] (first compound 0.02 µM, partner dose 2 µM) | 47.2 | 79.4 | 64.5 | 70.9 | 90.6 | 60.4 | 68.9 | 81.4 | 64.5 | 67.7 |
| Cc1cc(Nc2cc(N3CCN(C)CC3)nc(/C=C/c3ccccc3)n2)n[nH]1 + COc1ccc(Cl)c(Nc2nc3ccccc3nc2NS(=O)(=O)c2cccc(NC(=O)C(C)(C)N)c2)c1 [XL147] (first compound 0.2 µM, partner dose 4 µM) | 36.7 | 75.4 | 71.8 | 76.5 | 78.2 | 71.5 | 66.2 | 69.9 | 86.4 | 62.3 |
| Cc1cc(Nc2cc(N3CCN(C)CC3)nc(/C=C/c3ccccc3)n2)n[nH]1 + CC1(C)NC(=O)N(c2ccc([N+](=O)[O-])c(C(F)(F)F)c2)C1=O [nilutamide] (first compound 0.2 µM, partner dose 5 µM) | 58.5 | 87.1 | 100 | 76.7 | 85.6 | 67.6 | 69.3 | 72.6 | 65.1 | 96.8 |
| CC(C)C[C@H](NC(=O)[C@H](Cc1ccccc1)NC(=O)c1cnccn1)B(O)O [Bortezomib] + C[C@@H](Oc1cc(-c2cnn(C3CCNCC3)c2)cnc1N)c1c(Cl)ccc(F)c1Cl [Crizotinib] (first compound 0.005 µM, partner dose 1 µM) | 24.5 | 56.7 | 25.5 | 19.7 | 71.6 | 57.5 | 24.8 | 14.6 | 29.7 | 20.8 |
| COc1ccc(C2=N[C@@H](c3ccc(Cl)cc3)[C@@H](c3ccc(Cl)cc3)N2C(=O)N2CCNC(=O)C2)c(OC(C)C)c1 [Nutlin-3] + CS(=O)(=O)CCNCc1ccc(-c2ccc3ncnc(Nc4ccc(OCc5cccc(F)c5)c(Cl)c4)c3c2)o1 [lapatinib] (first compound 0.5 µM, partner dose 4 µM) | 71 | 97.5 | 129 | 65.7 | 92.2 | 54.1 | 88.7 | 81 | 88.8 | 121 |
| COc1ccc(C2=N[C@@H](c3ccc(Cl)cc3)[C@@H](c3ccc(Cl)cc3)N2C(=O)N2CCNC(=O)C2)c(OC(C)C)c1 [Nutlin-3] + O=C(O)c1ccc(-c2c[nH]c3ncc(-c4ccccc4)cc23)cc1C1CCCC1 [GSK650394] (first compound 0.5 µM, partner dose 0.8 µM) | 51.9 | 65.6 | 84.5 | 56.2 | 59.9 | 56.7 | 62.1 | 64.5 | 110 | 70.8 |
| Cc1cc(Nc2cc(N3CCN(C)CC3)nc(/C=C/c3ccccc3)n2)n[nH]1 + CS(=O)(=O)CCNCc1ccc(-c2ccc3ncnc(Nc4ccc(OCc5cccc(F)c5)c(Cl)c4)c3c2)o1 [lapatinib] (first compound 0.2 µM, partner dose 4 µM) | 46 | 64.3 | 60.2 | 50.8 | 79 | 46.5 | 47.6 | 70.7 | 56 | 55.9 |
| Cc1cn(-c2cc(NC(=O)c3ccc(C)c(Nc4nccc(-c5cccnc5)n4)c3)cc(C(F)(F)F)c2)cn1 [nilotinib] + C[C@]1(c2nc3c(C(N)=O)cccc3[nH]2)CCCN1 [Veliparib] (first compound 1 µM, partner dose 7 µM) | 53.7 | 71.7 | 70.4 | 78.3 | 101 | 58.2 | 74.4 | 98.9 | 96.8 | 65.2 |
| Cc1cc(Nc2cc(N3CCN(C)CC3)nc(/C=C/c3ccccc3)n2)n[nH]1 + CCCS(=O)(=O)Nc1ccc(F)c(C(=O)c2c[nH]c3ncc(Cl)cc23)c1F [PLX4720] (first compound 0.2 µM, partner dose 0.4 µM) | 42.1 | 103 | 92 | 65.5 | 101 | 56.2 | 74.4 | 67.2 | 69.9 | 49 |
| COc1ccc(C2=N[C@@H](c3ccc(Cl)cc3)[C@@H](c3ccc(Cl)cc3)N2C(=O)N2CCNC(=O)C2)c(OC(C)C)c1 [Nutlin-3] + CCCCCCCCc1ccc(CCC(N)(CO)CO)cc1 [fingolimod] (first compound 0.5 µM, partner dose 10 µM) | 0.235 | 0.46 | 9.91 | 51.5 | 64.5 | 16.4 | 9.34 | 39 | 3.17 | 23.4 |
| Cc1cn(-c2cc(NC(=O)c3ccc(C)c(Nc4nccc(-c5cccnc5)n4)c3)cc(C(F)(F)F)c2)cn1 [nilotinib] + CN1CCN(c2ccc3nc(-c4c(N)c5c(F)cccc5[nH]c4=O)[nH]c3c2)CC1 [Dovitinib] (first compound 1 µM, partner dose 0.5 µM) | 61.4 | 76.3 | 79.9 | 56.7 | 90.1 | 59.5 | 81.2 | 83.5 | 56.1 | 80.3 |
| COc1ccc(C2=N[C@@H](c3ccc(Cl)cc3)[C@@H](c3ccc(Cl)cc3)N2C(=O)N2CCNC(=O)C2)c(OC(C)C)c1 [Nutlin-3] + Cn1c(=O)n(-c2ccc(C(C)(C)C#N)cc2)c2c3cc(-c4cnc5ccccc5c4)ccc3ncc21 [NVP-BEZ235] (first compound 0.5 µM, partner dose 0.02 µM) | 42.4 | 67.6 | 74.8 | 59.9 | 81.5 | 75 | 60.9 | 74.8 | 85.1 | 75.8 |
| COc1ccc(C2=N[C@@H](c3ccc(Cl)cc3)[C@@H](c3ccc(Cl)cc3)N2C(=O)N2CCNC(=O)C2)c(OC(C)C)c1 [Nutlin-3] + O=C(CCCCCCC(=O)Nc1ccccc1)NO [vorinostat] (first compound 0.5 µM, partner dose 0.4 µM) | 42.4 | 60.5 | 91.4 | 55.8 | 76.2 | 74.7 | 49.5 | 72.8 | 65.6 | 83.8 |
| Cc1cn(-c2cc(NC(=O)c3ccc(C)c(Nc4nccc(-c5cccnc5)n4)c3)cc(C(F)(F)F)c2)cn1 [nilotinib] + Cc1nc(Nc2ncc(C(=O)Nc3c(C)cccc3Cl)s2)cc(N2CCN(CCO)CC2)n1 [dasatanib] (first compound 1 µM, partner dose 0.02 µM) | 69.3 | 117 | 88.3 | 56.1 | 73.2 | 59.6 | 55.9 | 62.3 | 42.7 | 82.3 |
| CC(C)C[C@H](NC(=O)[C@H](Cc1ccccc1)NC(=O)c1cnccn1)B(O)O [Bortezomib] + OCc1c[nH]c2ccccc12 [Indole-3-carbinol] (first compound 0.005 µM, partner dose 4 µM) | 33.3 | 53.7 | 39.2 | 17.5 | 77 | 57.8 | 19.2 | 18.8 | 25.9 | 23.8 |
| Cc1cn(-c2cc(NC(=O)c3ccc(C)c(Nc4nccc(-c5cccnc5)n4)c3)cc(C(F)(F)F)c2)cn1 [nilotinib] + C[C@@H](Oc1cc(-c2cnn(C3CCNCC3)c2)cnc1N)c1c(Cl)ccc(F)c1Cl [Crizotinib] (first compound 1 µM, partner dose 1 µM) | 86.8 | 101 | 88.5 | 68.4 | 108 | 84.3 | 75.1 | 92.2 | 48.7 | 103 |
| Cc1cn(-c2cc(NC(=O)c3ccc(C)c(Nc4nccc(-c5cccnc5)n4)c3)cc(C(F)(F)F)c2)cn1 [nilotinib] + CC(=O)O[C@@]12CO[C@@H]1C[C@H](O)[C@@]1(C)C(=O)[C@H](O)C3=C(C)[C@@H](OC(=O)[C@H](O)[C@@H](NC(=O)OC(C)(C)C)c4ccccc4)C[C@@](O)([C@@H](OC(=O)c4ccccc4)[C@H]21)C3(C)C [Docetaxel] (first compound 1 µM, partner dose 0.0005 µM) | 11.4 | 12.4 | 35.3 | 29.6 | 58.8 | 39.3 | 35.6 | 31.2 | 25.8 | 31.3 |
| COc1ccc(C2=N[C@@H](c3ccc(Cl)cc3)[C@@H](c3ccc(Cl)cc3)N2C(=O)N2CCNC(=O)C2)c(OC(C)C)c1 [Nutlin-3] + CC(=O)c1c(C)c2cnc(Nc3ccc(N4CCNCC4)cn3)nc2n(C2CCCC2)c1=O [palbociclib] (first compound 0.5 µM, partner dose 0.2 µM) | 38.1 | 53.3 | 61.3 | 44.5 | 67.6 | 49 | 52.3 | 33.5 | 76.1 | 46.8 |
